In PMC6919601, “Identification of Plasmodium dipeptidyl aminopeptidase allosteric inhibitors by high throughput screening” (PLoS ONE, 2019):
The whole screen tested about 110,000 compounds, of which about 230 (0.21%) showed an effect of 50% or more. The list shows a part of the results.

What follows are compounds tested against DPAP1 (Plasmodium falciparum, UniProt Q8IIJ9) (assay: primary screen, percent inhibition; read by cleavage of a fluorogenic dipeptide substrate; higher = more effect of the substance).
Set-up: species or system P. falciparum D10 trophozoite lysates; single well
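Also: 30 min substrate incubation versus DMSO and 10 µM JCP410 controls.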

DPAP1, sequence (Q8IIJ9 whole entry, looked up): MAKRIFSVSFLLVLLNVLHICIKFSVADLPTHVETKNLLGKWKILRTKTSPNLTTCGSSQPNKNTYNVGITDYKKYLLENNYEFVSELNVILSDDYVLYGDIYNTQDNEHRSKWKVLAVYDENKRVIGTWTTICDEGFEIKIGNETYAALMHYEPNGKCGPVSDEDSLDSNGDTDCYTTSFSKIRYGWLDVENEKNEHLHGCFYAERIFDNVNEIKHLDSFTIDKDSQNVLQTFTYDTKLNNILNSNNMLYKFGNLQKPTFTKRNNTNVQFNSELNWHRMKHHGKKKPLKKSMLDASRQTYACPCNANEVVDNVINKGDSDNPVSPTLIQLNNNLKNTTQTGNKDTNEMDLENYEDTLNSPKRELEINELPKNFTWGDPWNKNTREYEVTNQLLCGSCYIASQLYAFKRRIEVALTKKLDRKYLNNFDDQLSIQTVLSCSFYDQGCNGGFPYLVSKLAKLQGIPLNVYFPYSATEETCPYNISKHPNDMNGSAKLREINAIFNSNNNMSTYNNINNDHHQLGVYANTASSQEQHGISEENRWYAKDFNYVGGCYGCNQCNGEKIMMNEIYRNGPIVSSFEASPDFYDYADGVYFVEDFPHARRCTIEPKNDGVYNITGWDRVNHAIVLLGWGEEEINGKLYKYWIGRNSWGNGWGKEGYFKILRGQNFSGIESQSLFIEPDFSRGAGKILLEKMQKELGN

SMILES | % Inhibition @ 10 uM
N#CC1=C(N)OC2=C(C(=O)CCC2)C12C(=O)c1ccccc1C2=O | -0.216%
COc1ccc(C(=O)N2CCc3ccccc32)cc1Br | -2.28%
Cc1ccc(C)c(S(=O)(=O)NCc2ccc(C(=O)NCc3ccco3)cc2)c1 | 6.94%
CC(=O)c1cc2c(s1)SCc1ccccc1C2 | 8.94%
Cc1nc2c(cc1C(=O)/C=C/c1ccc(N(C)C)cc1)CCCC2 | -1.98%
Cc1cc(C)c(S(=O)(=O)NCC(c2cccnc2)N2CCN(Cc3ccccc3)CC2)c(C)c1 (centres unmarked) | -3.51%
CCC1(C(O)(C#CCN(CCO)CCO)c2ccccc2)CCCC1 (centres unmarked) | 0.408%
O=C(c1ccco1)N1CCN(C(=O)c2cc3c(s2)-c2ccc(Cl)cc2SC3)CC1 | 0.953%
CC(C)CCn1c(SC(C)C)nc2c1c(=O)[nH]c(=O)n2C | 0.983%
COCC(=O)Nc1nc2nccc(C)n2n1 | -1.31%
Cn1c(=O)c2c(nc(CN3CCCCC3)n2Cc2ccccc2)n(C)c1=O | -0.499%
CC1CCc2c(sc3nnn(CC(=O)c4cc5ccccc5o4)c(=O)c23)C1 (centres unmarked) | -2.71%
O=C(O)CNC(=S)N(Cc1cccs1)C1CCCCC1 | 7.61%
COc1cccc(CNc2nc3ccccc3n2CCN2CCOCC2)c1OC | -2.91%
CC1=C(C(=O)Nc2ccccn2)C(c2ccc(Br)cc2)C2=C(O)CC(C)(C)CC2=N1 (centres unmarked) | 4.32%
CCCOC(=O)c1ccc(NC(=O)c2ccccc2Br)cc1 | 2.22%
COC(=O)C1=C(C)NC(=O)NC1c1cccc(Cl)c1Cl (centres unmarked) | -2.2%
CCC1(C)CC(CCN)(c2ccc(F)cc2)CCO1 (centres unmarked) | -4.18%
CCN1CCC(O)(c2ccc(F)cc2)C(C(=O)c2ccc(F)cc2)C1 (centres unmarked) | -1.52%
COc1ccccc1CCNC(=O)Cn1ccc2cc(S(=O)(=O)N3CCCC3)ccc21 | -5.04%
Cc1cccc(C)c1NC(=O)c1sc2nc3c(cc2c1N)CN(C)CC3 | 3.72%
C=CCOc1ccccc1CNCc1cccs1 | 1.88%
CCCOc1ccc(C(=O)NC(CC(C)C)C(=O)NCC#N)cc1 (centres unmarked) | 3.19%
COc1ccccc1CNC(=O)c1cn(C)c(=O)c2c1c1ccccc1n2C | 1.37%
Cc1ccc(C(=O)N/C(=C\c2ccc(F)cc2)C(=O)NCCCn2ccnc2)cc1 | 6.51%

SMILES | % Inhibition @ 10 uM
N#CCNC(=O)[C@H](Cc1cc(Cl)c(O)c(Cl)c1)NC(=O)c1ccc(Br)cc1 | 0.173%
Cc1cc(C)cc(NC(=O)CN(c2ccc(F)cc2)S(C)(=O)=O)c1 | -5.27%
Cc1nn(CCC(=O)NCC2CCCO2)c(=O)c2nn(-c3ccccc3)c(C)c12 (centres unmarked) | -4%
O=C(CSc1nc2c(c(=O)n1CCc1ccccc1)SCC2)NCc1ccccc1Cl | 2.19%
Cc1c(Br)c(C(F)(F)F)nn1CC(=O)NC12CC3CC(CC(C3)C1)C2 | -5.69%
CC(C)Cc1sc(C(=O)O)cc1[N+](=O)[O-] | 2.33%
COc1ccc(C=C2C(=O)NC(=O)NC2=O)cc1 | 1.29%
CCOCCCNC(=O)C1CCN(c2nnc(C)c3c(C)n(-c4ccc(Cl)cc4)nc23)CC1 | -2.5%
CCCN1CCN(C(=O)C2CCN(c3nn4cc(-c5ccc(C)cc5)nc4s3)CC2)CC1 | 7.9%
COc1ccc(S(=O)(=O)NCCOC23CC4CC(CC(C4)C2)C3)cc1OC | -5.41%
Cc1cc(C)c2c(CC(=O)N(Cc3ccc(C(C)C)cc3)C3CCS(=O)(=O)C3)coc2c1 (centres unmarked) | -7.96%
Cc1nn(-c2ccccc2)c(Cl)c1C1C(C#N)=C(N)Oc2[nH]nc(C(C)(C)C)c21 (centres unmarked) | 25.9%
Cc1ccc(OCC(=O)Nc2ccccc2C(=O)Nc2ccccc2)cc1 | -0.992%
NS(=O)(=O)c1ccc(NC(=O)C2CC=CCC2C(=O)O)cc1 (centres unmarked) | -1.88%
CCOC(=O)c1c(C)[nH]c(C)c1S(=O)(=O)NCC(=O)NCc1ccc2c(c1)OCO2 | -5.89%
O=C(NCCCN1CCCC1)C1CC(=O)N(C2CCCC2)C1 (centres unmarked) | -2.99%
O=C(NC1CCN(Cc2ccccc2)CC1)C1CCN(c2nnc(N3CCCC3=O)s2)CC1 | 2.27%
Cc1cc(C)nc(SCC(=O)Nc2cc(C)c(C)cc2Br)n1 | -2.19%
COc1ccc(-c2cc(C(F)F)n3ncc(C(=O)NCC(C)C)c3n2)cc1 | -2.75%
CCN1CCC(NCc2ccc(Br)cc2)CC1 | -2.56%
OCCSc1nnc(COc2ccc(Br)cc2)n1-c1ccccc1 | 0.401%
O=C(NCc1nnc(SC/C=C/c2ccccc2)o1)c1cccs1 | -1.58%
Cc1ccc(S(=O)(=O)N(C)Cc2nc(-c3ccc(Br)cc3)no2)cc1 | 7.02%
O=C(c1ccc2nc(N3CCOCC3)sc2c1)N1CCCC1 | -0.637%
N#Cc1ccc(Sc2nc3ccccc3[nH]2)cc1C#N | -2.13%
